Measurements from paper PMC4336329 (PLoS ONE, 2015).
In all, about 310,000 compounds went through this assay and about 14,000 (4.5%) showed an effect of 50% or more. Effects have a minus sign here. The list shows a part of the results.

target: human ether-à-go-go-related gene (hERG) potassium channel (human, UniProt Q12809); assay: primary screen, population patch clamp on CHO cells stably expressing hERG
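Note: peak tail current of the secondary pulse compared with the same well before compound.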

Sequence of human ether-à-go-go-related gene (hERG) potassium channel (Q12809 whole entry, looked up): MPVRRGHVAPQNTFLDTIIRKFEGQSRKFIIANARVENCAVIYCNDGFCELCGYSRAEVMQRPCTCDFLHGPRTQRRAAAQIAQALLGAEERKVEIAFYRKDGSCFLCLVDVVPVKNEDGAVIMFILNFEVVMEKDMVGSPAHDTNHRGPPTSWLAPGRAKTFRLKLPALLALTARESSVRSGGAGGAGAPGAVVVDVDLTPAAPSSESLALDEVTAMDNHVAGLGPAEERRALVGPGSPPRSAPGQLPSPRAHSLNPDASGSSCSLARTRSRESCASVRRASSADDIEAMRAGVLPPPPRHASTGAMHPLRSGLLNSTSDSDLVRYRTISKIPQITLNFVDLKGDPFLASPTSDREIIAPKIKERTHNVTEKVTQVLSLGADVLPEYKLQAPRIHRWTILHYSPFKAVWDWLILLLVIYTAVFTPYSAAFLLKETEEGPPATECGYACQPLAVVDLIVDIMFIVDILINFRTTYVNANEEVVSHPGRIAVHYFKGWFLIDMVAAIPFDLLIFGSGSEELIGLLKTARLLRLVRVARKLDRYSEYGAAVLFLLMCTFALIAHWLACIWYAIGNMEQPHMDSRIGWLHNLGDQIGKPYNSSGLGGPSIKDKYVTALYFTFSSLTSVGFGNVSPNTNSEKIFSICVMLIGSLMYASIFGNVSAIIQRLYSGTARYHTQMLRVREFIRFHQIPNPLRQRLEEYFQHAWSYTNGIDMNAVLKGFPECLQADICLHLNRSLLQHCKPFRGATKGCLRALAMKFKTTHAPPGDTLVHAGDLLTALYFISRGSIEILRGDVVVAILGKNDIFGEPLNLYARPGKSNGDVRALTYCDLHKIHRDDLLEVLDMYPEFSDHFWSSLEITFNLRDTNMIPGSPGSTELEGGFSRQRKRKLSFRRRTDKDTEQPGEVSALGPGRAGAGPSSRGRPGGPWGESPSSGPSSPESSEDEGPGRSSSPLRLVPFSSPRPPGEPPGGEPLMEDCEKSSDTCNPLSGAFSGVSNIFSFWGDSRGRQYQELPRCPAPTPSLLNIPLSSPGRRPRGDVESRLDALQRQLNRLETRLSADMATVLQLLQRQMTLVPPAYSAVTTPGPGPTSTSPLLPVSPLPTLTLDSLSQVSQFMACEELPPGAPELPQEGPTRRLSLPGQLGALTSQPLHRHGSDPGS

Structure (SMILES)	hERG current change (%, negative = inhibition) at 10uM
CCn1nnnc1-c1ccc(OC)c(S(=O)(=O)Nc2ccc(S(N)(=O)=O)cc2)c1	26%
O=C(NC(=O)N1CCC2(CC1)OCCO2)c1ccc(Cl)cc1	20.2%
CC(C)(O)CCC(C)(C)O	21.1%
COc1ccccc1-c1cc(=O)c2c(O)ccc([N+](=O)[O-])c2o1	17.6%
C=CCn1c(SCC(=O)NCc2ccccc2)nnc1C1CCCCC1	-3.55%
Cc1ccc(S(=O)(=O)NCCC(=O)NNC(=O)c2ccccc2O)cc1C	-21.5%
CCOC(=O)c1c(CC(C)C)csc1NC(=O)C(C)C	-2.51%
NC(=O)c1cccc(NC(=O)CCCCC(=O)Nc2cccc(C(N)=O)c2)c1	18%
O=C(CC12CC3CC(CC(C3)C1)C2)N1CCCOC1	-3.81%
O=C(CSc1nc(-c2ccccc2)cc(=O)[nH]1)Nc1ccc(Br)cc1	21.5%
Cc1csc(=O)n1CCC(=O)OCC(=O)NNC(=O)c1ccc(Br)cc1	-11.1%
CCC(=O)N1CC23C=CC(CC2CC12CCCCC2)O3 (centres unmarked)	-4.2%
C/C(=N\Nc1nnc(C)c(=O)[nH]1)C(=O)O	13.2%
Cc1noc(C)c1COC(=O)c1csc2c1CCC(C)C2 (centres unmarked)	4.48%
CC(=O)Nc1cccc(C(=O)N2CCN(Cc3ccccc3)CC2)c1	17.6%
CCCc1nnc(SCC(=O)Nc2ccc(C(=O)OCC)cc2)o1	7.85%
COc1ccc(NC(=O)Nc2cccs2)cc1Cl	6.01%
COc1ccc(-c2cc(=O)oc3cc(OC(C)C(=O)Nc4ccc(CN5CCOCC5)cc4)ccc23)cc1 (centres unmarked)	-0.104%
CNc1c([N+](=O)[O-])cnn1-c1ccc(Cl)cc1	0.0173%
Cc1ccc(NC(=O)C(OC(=O)c2ccc(F)cc2)c2ccccc2)cc1Cl (centres unmarked)	20.5%

Structure (SMILES)	hERG current change (%, negative = inhibition) at 10uM
CC1CCCN(C(=O)CSCC(=O)Nc2nc(-c3cccs3)cs2)C1 (centres unmarked)	-31.1%
Cc1cc(-c2ccc(N3CCOCC3)cc2)nc2ccccc12.Cl	3.53%
CN1CCN(c2ccc(NC(=S)NC(=O)c3cccc4c(Br)cccc34)cc2)CC1	16.2%
Cc1ccc2nc(C3CCCN(C(=S)Nc4cccc(C)c4C)C3)[nH]c2c1 (centres unmarked)	1.17%
O=C1c2ccccc2C(=Nc2ccccc2)C1c1cccc(Br)c1 (centres unmarked)	12.9%
COC(=O)CC1C(=O)NCCN1C(=S)Nc1cc(C)cc(C)c1 (centres unmarked)	9.16%
Oc1ccc(-c2cccc(-c3ccc(O)cc3)c2)cc1	3.27%
O=C(CSc1nnc(C2COc3ccccc3O2)o1)N1CCOCC1 (centres unmarked)	2.95%
Cc1ccc(NC(=O)c2ccc(N3C(=O)C4CC=C(Cl)CC4C3=O)cc2)cc1 (centres unmarked)	12.9%
c1nnc(NC2=NCCC2)s1	11.9%
CC(=O)NCC(=O)NNC1CC(=O)N(c2cccc(Cl)c2)C1=O (centres unmarked)	16.9%
Cn1c(=O)n(C)c2cc(/C=N/NC(=O)c3cccc(Br)c3)ccc21	6.71%
c1ccc(-n2cnnc2SCc2cn3cccnc3n2)cc1	5.32%
O=C(Cn1c(=O)oc2cc(S(=O)(=O)N3CCCC3)ccc21)Nc1ccc(C(F)(F)F)cc1	-0.00062%
Cc1ccc2c(c1)c1nc3ccccc3nc1n2CCN1CCOCC1	-62.8%
CCOC(=O)c1cn2nc(OP(=S)(OCC)OCC)cc2nc1C	-40.3%
Cc1ccc(-n2nnc(-c3cc4ccccc4nc3Cl)n2)cc1	24.9%
O=Cc1cc2cc3c(cc2nc1Cl)OCCO3	17.9%
O=C1OC(c2cccs2)=N/C1=C\c1ccc(-c2cccc(Cl)c2)o1	5.16%
CCCC(=O)Nc1ccc2c(c1)nc(CCNC(=O)c1ccccc1)n2C	3.53%

Structure (SMILES)	hERG current change (%, negative = inhibition) at 10uM
CN(C)[C@@H](CO)c1nnc([C@H](CCC(=O)O)NC(=O)C2CCNCC2)o1.Cl	-1.23%
CCOC(=O)C1CCCN(C2CC(=O)N(c3ccc(C)c(C)c3)C2=O)C1 (centres unmarked)	10.6%
NC(=O)c1cccn1Cc1cccc(Cl)c1	-13%
Cc1ccc(C)c(NC(=S)N/N=C2\CCc3ccccc32)c1	9.03%
O=C(Nc1cccnc1)c1ccccc1Oc1ccccc1	-6.55%
CCC(C)NC(=O)COC(=O)c1cccnc1Nc1ccccc1F (centres unmarked)	8.21%
Cn1c(=O)n(C)c2cc(NC(=O)c3cc4ccccc4o3)ccc21	-18.8%
O=[N+]([O-])c1cc(/C=N/O)ccc1Sc1ccccc1	13.7%
CCC(NS(=O)(=O)c1cnn(CC)c1)c1ccccc1 (centres unmarked)	21.5%
OCCN1CCN(C(=S)Nc2ccccc2)CC1	7.11%
CCOc1cccc(/C=C/c2ccc3cccc(O)c3n2)c1O	13.9%
CCn1c(C(C#N)/C(=N\S(=O)(=O)c2cccs2)c2ccccc2)nc2ccccc21 (centres unmarked)	6.74%
CCn1c(SCC(=O)Nc2nc3ccc(OC)cc3s2)nc2c1c(=O)n(C)c(=O)n2C	-44.8%
CSc1nc(O)c(C(c2ccccc2)c2c(O)nc(SC)[nH]c2=O)c(=O)[nH]1	17.4%
O=C(CCC(=O)OCC(=O)c1ccccc1)Nc1cccc(Cl)c1	21.5%
CCc1c(C)nc2ncnn2c1NCCc1ccc(Cl)cc1	-21.2%
CS(=O)(=O)c1[nH]nc(-c2cccc(Cl)c2)c1C#N	8.81%
CCc1ccc(OCCOCC(O)CNC(C)CC)cc1.Cl (centres unmarked)	-35.3%
C=CCn1c(-c2cccn(Cc3ccc(Cl)cc3)c2=O)n[nH]c1=S	8.22%
